# PubChem BioAssay AID485281 (National Center for Advancing Translational Sciences (NCATS), 2010)
# Screen size: about 350,000 compounds; about 260 (0.074%) were called active. The inconclusive results got no clear call from the source; some entries with a clear call stand among them for comparison. Calls follow the shape of the dose curve; as a rule, active = well fitted inhibition curve with a large enough effect; inconclusive = small, poorly fitted or top-dose-only effect; inactive = no such curve, though single readings can be large or run the other way. Where the call is inconclusive, the potency comes from a doubtful curve fit.
# Molecular target: Ferritin light chain (Equus caballus) (UniProt P02791)
# Chain of UniProt P02791 (P02791 whole entry, looked up): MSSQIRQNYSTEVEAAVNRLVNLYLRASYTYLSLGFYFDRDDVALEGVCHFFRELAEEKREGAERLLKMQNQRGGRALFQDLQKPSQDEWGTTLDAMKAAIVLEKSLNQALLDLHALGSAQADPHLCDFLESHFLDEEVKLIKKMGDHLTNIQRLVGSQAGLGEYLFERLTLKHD
# Experiment: qHTS Assay for Identification of Novel General Anesthetics; also: nearly all actives have a fitted effect of over 20% in size
# Conditions: apoferritin/1-aminoanthracene competitive binding, fluorescence; series mostly up to 77.5 µM
# Outline: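 Steps: apoferritin (10 uM) was premixed with half-saturated 1-AMA in PBS, compounds were pin-transferred, plates stood 10 min at room temperature, fluorescence was read at 380/535 nm, and curves were fitted with a Hill equation.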
# Tags tell the direction and shape of the fitted curve.
row,SMILES,Potency
1,COc1ccc(NC(=O)CS(=O)CC(=O)Nc2ccc(F)cc2F)cc1 (stereo not drawn),"inconclusive: 15.8 µM [inhibitor, partial curve]"
2,Nc1nc(C23CC4CC(CC(Cl)(C4)C2)C3)cs1,"inconclusive: 3.16 µM [inhibitor, full curve]"
3,Cc1ccccc1Cn1c(C)nc2ccc([N+](=O)[O-])cc2c1=O,"inconclusive: 39.8 µM [inhibitor, partial curve]"
4,CCCC(C)NS(=O)(=O)c1ccc(OC)c(C)c1 (stereo not drawn),active: 15.8 µM
5,Cc1ccc(-n2nc(C)c(C3C(C#N)=C(N)OC4=C3C(=O)CCC4)c2Cl)cc1 (stereo not drawn),"inconclusive: 25.1 µM [inhibitor, partial curve]"
6,COc1cccc(CNC(=O)N2CCC(CN3CCC(C)CC3)CC2)c1,inactive
7,c1nc(NC2CCCCCC2)c2[nH]cnc2n1,"inconclusive: 39.8 µM [inhibitor, partial curve]"
8,COc1cccc(Cn2cnc3c(N)c(C)c(C)cc32)c1,"inconclusive: 35.5 µM [inhibitor, single point]"
9,CCCCn1c(CNC(=O)C23CC4CC(CC(C4)C2)C3)nnc1SCC(=O)Nc1ccccc1,"inconclusive: 50.1 µM [inhibitor, single point]"
10,O=[N+]([O-])c1ccc(C2CCCC/C2=N\OCc2cccc(F)c2)c([N+](=O)[O-])c1 (stereo not drawn),"inconclusive: 35.5 µM [inhibitor, partial curve]"
11,Cc1ccc(NC(=O)C2=C(C(=O)O)CCCC2)cc1Br,"inconclusive: 31.6 µM [inhibitor, single point]"
12,CCOc1cc(/C=C(\C#N)C(N)=O)ccc1OS(=O)(=O)c1ccccc1,inactive
13,C=CCN1C=C/C(=C\C=C(C#N)C#N)c2ccccc21,"inconclusive: 44.7 µM [inhibitor, single point]"
14,COc1ccccc1CNC(=O)c1cc(Sc2cccc(Cl)c2)nc2ccccc12,"inconclusive: 11.2 µM [inhibitor, partial curve]"
15,Cn1c(=O)n(Cc2ccco2)c(=N)c2c3c(sc21)CCC3,"inconclusive: 39.8 µM [inhibitor, partial curve]"
16,CCOC(=O)c1nc(N2CCN(C(=O)OCC)CC2)c2c3c(sc2n1)CCCC3,inactive
17,CCCCCCCCC(=O)N/N=C(\C)c1cccnc1,"inconclusive: 25.1 µM [inhibitor, partial curve]"
18,Nc1c2c(nc3ccc(Br)cc13)N(C1CCCCC1)CC2,inactive
19,Cc1ccc2[nH]c3c(N4CCc5ccccc5C4)ncnc3c2c1,inactive
20,O=C(COC(=O)c1ccccc1NS(=O)(=O)c1ccc(Cl)cc1)NCc1ccccc1,"inconclusive: 8.91 µM [inhibitor, full curve]"
21,O=C(CSc1nnnn1-c1ccccc1)N1CCCc2ccccc21,"inconclusive: 14.1 µM [inhibitor, partial curve]"
22,CC1(C)CC2CC(C)(CN2C(=O)CCCN2C(=O)c3ccccc3C2=O)C1 (stereo not drawn),"inconclusive: 35.5 µM [inhibitor, partial curve]"

row,SMILES,Potency
1,COCCCN(C(=S)NC(=O)C12CC3CC(CC(C3)C1)C2)c1c(N)n(Cc2ccccc2)c(=O)[nH]c1=O,"inconclusive: 39.8 µM [inhibitor, single point]"
2,COc1ccc(C(=O)N2CCCC(c3ccccc3)C2)cc1 (stereo not drawn),"inconclusive: 15.8 µM [inhibitor, partial curve, poor fit]"
3,Cc1nn(CC(=O)NCCc2ccc(Cl)cc2)c(=O)c2cccn12,"inconclusive: 25.1 µM [inhibitor, partial curve]"
4,O=C(NCCc1ccc(F)cc1)NC12CC3CC(CC(C3)C1)C2,"inconclusive: 15.8 µM [inhibitor, partial curve]"
5,Cc1nonc1NC(=O)OC1CCCCC1,"inconclusive: 28.2 µM [inhibitor, single point]"
6,O=C(COc1ccc(Cl)cc1Cl)N/N=C/CCc1ccccc1,"inconclusive: 28.2 µM [inhibitor, partial curve]"
7,CC1=NN(c2ccccc2)C(=O)C1N=Nc1ccccc1 (stereo not drawn),inactive
8,Cc1nn2c(C(F)(F)F)cc(-c3ccc(OC(C)C)cc3)nc2c1C#N,inactive
9,Cc1n[nH]c(C)c1S(=O)(=O)NCCc1ccc(Cl)cc1,"inconclusive: 39.8 µM [inhibitor, single point]"
10,CC(C)(C)C1CCC(C(=O)OCC(=O)Nc2ccc3[nH]c(=O)[nH]c3c2)CC1 (stereo not drawn),"inconclusive: 28.2 µM [inhibitor, partial curve]"
11,Cc1c(CCOC(=O)CC23CC4CC(CC(C)(C4)C2)C3)sc[n+]1Cc1ccc([N+](=O)[O-])cc1,"inconclusive: 11.2 µM [inhibitor, partial curve]"
12,CC1=CCC2C(=O)N(c3cccc(C(=O)NCc4ccccc4)c3)C(=O)C2C1 (stereo not drawn),"inconclusive: 50.1 µM [inhibitor, single point]"
13,O=S(=O)(Nc1cccnc1)c1ccc(C2CCCCC2)cc1,"inconclusive: 20 µM [inhibitor, partial curve]"
14,Cc1ccc(C(=O)Nc2nnc(C3CCCCC3)s2)o1,"inconclusive: 25.1 µM [inhibitor, partial curve]"
15,COc1ccc(N(CC(=O)NC(C)(C)C)C(=O)c2ccco2)cc1,"inconclusive: 39.8 µM [inhibitor, single point]"
16,O=C(O)COc1cccc2ccccc12,"inconclusive: 50.1 µM [inhibitor, partial curve]"
17,Cc1ccc2nc(SCc3nc(-c4ccccc4C)no3)[nH]c2c1,"inconclusive: 14.1 µM [inhibitor, partial curve]"
18,O=C1S/C(=C\c2ccc(O)c([N+](=O)[O-])c2)C(=O)N1c1ccccc1Cl,active: 12.6 µM
19,O=C(c1ccc2c(=O)n(Cc3ccco3)c(=S)[nH]c2c1)N1CCN(c2ccccc2)CC1,"inconclusive: 14.1 µM [inhibitor, partial curve]"
20,CCOc1cc(S(=O)(=O)N(CC)CC)ccc1Cl,"inconclusive: 11.2 µM [inhibitor, partial curve]"
21,Cc1ccc(N2CCN(C(=O)C3CCC(CNS(=O)(=O)c4ccc(Br)s4)CC3)CC2C)cc1 (stereo not drawn),inactive
